Reference: ChEMBL document CHEMBL4888484, “Replenishing the malaria drug discovery pipeline: Screening and hit evaluation of the MMV Hit Generation Library 1 (HGL1) against asexual blood stage Plasmodium falciparum ,using a nano luciferase reporter read-out” (2022)
In all, about 150,000 compounds went through this assay and about 540 (0.36%) showed an effect of 50% or more. This is one part of the list.

Tested on: Plasmodium falciparum
Experiment: Primary screen in NF54 nanoGlo assay, in single point, at 2uM, 72h; a lower Z score goes with more inhibition
Type: functional, Erythrocyte
Details: timepoint 72 hour

SMILES	% Inhibition [%]	Z score
O=S(=O)(Nc1ccc(-c2nc3ccc(Cl)cc3s2)c(Cl)c1)c1ccccc1Cl	-9	1.61
Cc1noc(C2CN(C(=O)CCc3c(C)noc3C)C2)n1	1	-0.09
Cc1ccccc1[C@H](C)NS(=O)(=O)c1ccc(Cl)c(-c2nnn[nH]2)c1	-11	1.43
Cc1noc([C@H](C)OC(=O)c2cc3c(cc2O)CCCC3)n1	-10	1.03
CCOc1ccc(C(=O)N2CCN(c3cc(N4CCN(C)CC4)ncn3)CC2)cc1	-10	1.22
CCn1ncc(C(CC(=O)c2ccccc2)CC(=O)c2ccccc2)c1C	-8	1.07
COC[C@H]1CN(c2nc(-c3ccccc3)ns2)CCO1	-10	1.39
CO[C@H]1[C@H](NC(=O)c2ccco2)c2ccccc2C12CCN(Cc1c[nH]cn1)CC2	-6	1.08
CC(C)(O)[C@H](O)C(=O)N1CCc2cc(Br)c(F)cc2C1	4	-0.52
C[C@H](NCCN1CCCS1(=O)=O)c1cc2cc(Cl)ccc2o1	-8	1.4
Cc1cc(C(=O)N[C@H]2CC[C@H](Oc3nccnc3C#N)CC2)no1	-12	1.39
CC(C)(C)NC(=O)NCc1nnc(C(=O)Nc2ccc3c(c2)OCO3)s1	10	-1.2
O=C(c1ccc2c(c1)OCO2)N1CCC[C@@]2(C1)NC(=O)N(Cc1ccccc1)C2=O	-5	0.65
CC(C(=O)NCC1CCCO1)N1CC(C)(C)C1C1CCCO1 (centres undefined)	15	-1.95
c1cc2ccc(NCc3nc4c(s3)CCCC4)nc2[nH]1	-8	1.51
COc1ccc(-n2ncc3c(NCCNC(=O)C4CCCC4)nc(C)nc32)cc1	-5	0.61
Cc1noc(C)c1C(=O)Nc1sc2c(c1C(=O)N1CCOCC1)CC[C@H](C)C2	-4	0.5
COc1ccc(NC(=O)Nc2c(-c3ccc(C(F)(F)F)cc3)n[nH]c2C2CC2)c(OC)c1	8	-1.45
CC(C)C[C@@H](N)C(=O)N(Cc1cnn(C)c1)C(C)C	1	-0.17
O=C1c2cccn2CC1C(O)c1ccncc1 (centres undefined)	-47	5.55
ClC1(Cl)C[C@@H]1CCN1CCN(Cc2cocn2)CC1	-9	1.01

SMILES	% Inhibition [%]	Z score
C[C@H]1C[C@@H](CO)CCN1C(=O)Cc1cccc(C2CC2)c1	-9	1.43
Cc1csc(CNC(=O)Cc2sc(N)nc2C)n1	-17	2.55
CN(C)c1nccc(N(C)CCN2CCOCC2)n1	-13	1.14
Cc1cc(NC(=O)c2sc(NCc3ccccc3)nc2C)ccc1F	8	-1.1
COc1ccc(Cn2c(C)cnc2[C@@H]2CCCN2C(=O)Cc2c(C)noc2C)cc1	-11	1.5
N#CC1CCN(c2cc([C@H]3CCOC3)nc(N3CC(O)C3)n2)CC1	-4	0.71
COc1ccc2ncc(C(=O)NC3(c4ccccc4C)CCC3)n2n1	7	-0.8
CCc1ccccc1NC(=O)CN1CCN(Cn2ncsc2=S)CC1	0	-0.04
CC1CCC(NC(=O)Nc2ccc(F)c(C3CC3)c2)CS1(=O)=O (centres undefined)	-5	0.65
CC1CCC(C(N)=O)CN1C(=O)c1cccc2[nH]ncc12 (centres undefined)	-15	1.36
CC(C)CC(=O)Nc1cc(F)cc(F)c1	4	-0.71
O=C(C1C2CCCCC21)N1CCCCCC1c1noc(-c2ccccc2)n1 (centres undefined)	-20	3.85
Cc1csc(C(=O)N2CCC[C@H](Oc3cccnn3)C2)c1	-7	0.82
Cc1c(C(=O)Nc2cc(F)ccc2OC(F)F)cnn1-c1ccncc1	4	-0.37
Cc1ncc2n1C[C@@H](C(=O)NCc1nc3c(s1)CCCC3)CC2	0	0.05
CCc1nc(C)c(-c2c(-c3ccccc3)ncn2[C@@H](C)c2ncn[nH]2)[nH]1	0	-0.06
Cn1cc(Br)c(C(=O)N2CCn3nccc32)cc1=O	-18	2.92
COc1ccc(Cl)cc1NC(=O)N1CCC[C@H](Oc2ccncc2Cl)C1	20	-2.77
O=C(CN1C(=O)c2ccccc2Oc2ncccc21)NCCc1ccccc1	0	-0.03
Cc1ccccc1CS(=O)(=O)N(C)C1CC(O)C1 (centres undefined)	-12	1.57
CC(=O)Oc1c(-c2ccc(NC(=O)c3ccc(F)cc3)cc2)c(-c2cccc(F)c2)nn1-c1ccc(C)cc1	-10	1.4
